Results taken from PMC4336329 (PLoS ONE, 2015).
Out of some 310,000 compounds screened, about 14,000 (4.5%) showed an effect of 50% or more. Effects have a minus sign here. The list shows a part of the results.

Biological target: human ether-à-go-go-related gene (hERG) potassium channel (human, UniProt Q12809)
Assay: primary screen, population patch clamp on CHO cells stably expressing hERG
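Further: peak tail current of the secondary pulse compared with the same well before compound.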

human ether-à-go-go-related gene (hERG) potassium channel, sequence (Q12809 whole entry, looked up): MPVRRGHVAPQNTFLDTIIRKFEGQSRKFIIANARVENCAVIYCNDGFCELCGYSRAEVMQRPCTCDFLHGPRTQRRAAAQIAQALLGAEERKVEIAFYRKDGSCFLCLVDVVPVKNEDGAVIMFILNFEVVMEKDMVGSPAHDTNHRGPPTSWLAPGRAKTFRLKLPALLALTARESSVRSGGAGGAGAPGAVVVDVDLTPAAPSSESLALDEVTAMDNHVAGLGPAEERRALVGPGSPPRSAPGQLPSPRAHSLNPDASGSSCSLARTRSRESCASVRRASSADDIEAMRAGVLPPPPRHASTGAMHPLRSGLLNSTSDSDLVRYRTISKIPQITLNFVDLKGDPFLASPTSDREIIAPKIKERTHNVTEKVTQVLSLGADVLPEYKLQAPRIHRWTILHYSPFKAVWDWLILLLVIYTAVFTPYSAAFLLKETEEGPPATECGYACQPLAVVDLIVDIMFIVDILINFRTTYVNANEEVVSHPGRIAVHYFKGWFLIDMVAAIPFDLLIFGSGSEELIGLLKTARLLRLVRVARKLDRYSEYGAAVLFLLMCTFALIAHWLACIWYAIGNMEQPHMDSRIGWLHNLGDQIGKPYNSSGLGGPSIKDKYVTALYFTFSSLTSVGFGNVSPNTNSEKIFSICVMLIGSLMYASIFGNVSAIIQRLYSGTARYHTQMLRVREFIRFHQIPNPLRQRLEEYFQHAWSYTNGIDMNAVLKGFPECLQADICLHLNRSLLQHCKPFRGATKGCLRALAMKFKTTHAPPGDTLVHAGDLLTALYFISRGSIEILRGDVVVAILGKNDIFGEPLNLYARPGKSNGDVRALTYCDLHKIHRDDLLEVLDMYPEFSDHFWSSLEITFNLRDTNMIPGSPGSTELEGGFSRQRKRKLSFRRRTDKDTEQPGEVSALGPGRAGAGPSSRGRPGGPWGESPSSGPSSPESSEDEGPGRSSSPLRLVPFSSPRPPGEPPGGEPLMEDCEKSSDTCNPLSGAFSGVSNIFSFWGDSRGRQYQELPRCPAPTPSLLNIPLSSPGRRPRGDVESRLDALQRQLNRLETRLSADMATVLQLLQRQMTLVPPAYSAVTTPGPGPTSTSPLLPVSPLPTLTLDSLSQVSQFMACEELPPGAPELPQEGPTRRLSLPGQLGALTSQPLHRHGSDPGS

Row | SMILES | hERG current change (%, negative = inhibition) at 10uM
1 | c1ccc(Nc2nc(NCCN3CCOCC3)nc(Nc3ccccc3)n2)cc1 | -15.2%
2 | Cc1cccc(NC(=O)CCCCCN2C(=O)c3ccccc3C2=O)n1 | -7.28%
3 | COc1ccccc1/C=N/NC(=O)CN(C1=NS(=O)(=O)c2ccccc21)c1ccccc1 | 6.77%
4 | O=C(COC(=O)CNS(=O)(=O)c1ccccc1)NC12CC3CC(CC(C3)C1)C2 | -18%
5 | Cc1nsc(Nc2ccccc2)c1C#N | 9.13%
6 | O=C(O)C[C@@H](O)C(=O)O | 14.7%
7 | CC1CCCCN1CCCNc1c(C=O)c(=O)[nH]c2ccccc12 (stereo not shown) | -3.96%
8 | COc1ccc2c(c1)O/C(=C\c1ccco1)C2=O | -8.05%
9 | CC(=O)CSc1nc2ccc(Nc3nc(N4CCOCC4)nc(N4CCOCC4)n3)cc2s1 | -7.76%
10 | COc1ccc(C(C)=O)cc1CSc1nnc(C)s1 | 11%
11 | CCOc1ccc2[nH]c(=O)c(CN(CCc3ccccc3)C(=O)N3CCOCC3)cc2c1 | -14.2%
12 | COc1ccc(-c2noc3c2-c2nc(-c4ccccc4Cl)sc2CC3)cc1 | 15.4%
13 | O=C1C2CC=C(Cl)CC2C(=O)N1CCc1c[nH]c2ccccc12 (stereo not shown) | -4.29%
14 | C/C(=N\Nc1ncc(Cl)cc1Cl)c1cccs1 | -17.7%
15 | CCOC(=O)c1nn(-c2ccccc2)c(=O)cc1SC(C)CC (stereo not shown) | 7.77%
16 | O=C(Cn1ccc2ccccc2c1=O)NCC(=O)Nc1ccc(F)cc1F | 11.8%
17 | CCOC(=O)N1CCN(c2c(N3CCN(c4ccc(OC)cc4)CC3)c(=O)c2=O)CC1 | -46.6%
18 | CCOC(=O)c1c(C)[nH]c(C)c1S(=O)(=O)NCCc1ccc(SC)cc1 | -7.24%
19 | O=C(Nc1ccc(Cl)c(Cl)c1)NC1CCS(=O)(=O)C1 (stereo not shown) | -8.07%
20 | O=C1CC(N2CCC(c3nc4ccccc4[nH]3)CC2)C(=O)N1c1cccc(F)c1 (stereo not shown) | -17.9%
21 | COc1ccc2c(c1OC)C(=O)OC2Nc1nc(-c2cccc([N+](=O)[O-])c2)cs1 (stereo not shown) | 20.7%
22 | CCOc1cccc(Oc2ncccc2C(=O)/C(C#N)=C/N(C)C)c1 | 19.8%
23 | COc1ccc(C(=O)Nc2ccc3nc4n(c(=O)c3c2)CCCC4)cc1[N+](=O)[O-] | 15.9%
24 | CCn1c(SCC(=O)Nc2ccc(C)cc2)nc2sc3c(c2c1=O)CCN(C)C3 | 3.79%
25 | NC(=O)CC(NC(=O)c1cccc(Br)c1)c1ccc(NC2CCCCCCCCCCC2)c([N+](=O)[O-])c1 (stereo not shown) | 5.21%
